The text below walks through data of PubChem BioAssay AID1460 (National Center for Advancing Translational Sciences (NCATS), 2008).

Values joined by “and” are separate entries in the source; they are usually repeats but may differ in a detail not shown here. Equal entries are not always repeated. The whole screen tested about 270,000 compounds, of which about 5,800 (2.1%) were called active. Roughly 16% stayed inconclusive and do not appear here. The call rests on the fitted dose curve; in most records, active means well fitted inhibition curve with a large enough effect; inconclusive means small, poorly fitted or top-dose-only effect; inactive means flat fitted curve, though single readings scatter. The entries are a selection whose mix differs from that of the whole data set. A structure can be active in one record and inactive in another.
On the % scale 0 is the no-effect control and ±100 the full control effect; potency means the concentration at half of the fitted maximal effect.

The assay has as its target Microtubule-associated protein tau (Homo sapiens) (UniProt P10636). Briefly: qHTS for Inhibitors of Tau Fibril Formation, Thioflavin T Binding. Further: nearly all actives have a fitted effect of over 55% in size. Particulars: recombinant tau K18 P301L, heparin-induced fibrillization, ThT fluorescence; series mostly up to 57.4 µM; activity, negative = inhibition: at the top concentration. A digest of the protocol: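 ThT emission at 510 nm, taken 1 hr after adding 30 uM dye, quantifies aggregates formed when 20 uM heparin acts on human tau K18 P301L for 6 hr at 37 C.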
Sequence of UniProt P10636 (P10636 whole entry, looked up): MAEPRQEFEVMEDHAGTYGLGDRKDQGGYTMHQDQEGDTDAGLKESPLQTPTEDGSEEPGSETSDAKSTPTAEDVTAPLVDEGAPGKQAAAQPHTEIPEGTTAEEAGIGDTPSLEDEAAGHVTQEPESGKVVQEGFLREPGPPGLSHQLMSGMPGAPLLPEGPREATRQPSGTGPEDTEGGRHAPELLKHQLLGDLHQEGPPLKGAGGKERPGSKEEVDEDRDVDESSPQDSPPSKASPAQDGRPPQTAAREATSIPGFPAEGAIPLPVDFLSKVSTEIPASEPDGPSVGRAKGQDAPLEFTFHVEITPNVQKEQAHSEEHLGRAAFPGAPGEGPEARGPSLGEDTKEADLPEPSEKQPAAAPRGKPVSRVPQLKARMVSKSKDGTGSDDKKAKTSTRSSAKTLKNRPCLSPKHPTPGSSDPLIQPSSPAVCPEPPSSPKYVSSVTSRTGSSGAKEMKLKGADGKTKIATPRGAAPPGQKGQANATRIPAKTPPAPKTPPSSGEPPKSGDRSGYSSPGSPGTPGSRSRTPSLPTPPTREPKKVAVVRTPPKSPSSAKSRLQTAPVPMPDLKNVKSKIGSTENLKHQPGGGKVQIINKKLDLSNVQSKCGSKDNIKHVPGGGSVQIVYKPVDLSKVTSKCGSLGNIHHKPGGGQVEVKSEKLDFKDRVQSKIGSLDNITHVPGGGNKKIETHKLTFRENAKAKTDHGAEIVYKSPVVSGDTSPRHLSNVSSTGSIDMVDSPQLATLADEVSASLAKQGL
Turning to `COc1cc2cc(CN(Cc3nnnn3Cc3ccco3)C3CCCCC3)c(=O)[nH]c2cc1OC`, the Potency was active: 15.8 µM.

For the compound `Cc1ccc(NC(=O)c2cccc(N(C)C)c2)cc1NC(=O)c1ccc(O)cc1`, the “activity, negative = inhibition” value was inactive: 4.57%.

Take `C[C@@H](C(=O)NCCc1c[nH]c2ccccc12)[C@@H]1C[C@@]1(C)[C@@H](NC(=O)OCc1ccccc1)c1ccccc1`: the “activity, negative = inhibition” value was inactive: 17.2%.

Take `COc1ccc(/C=C/C(=O)C2C(=O)C=C(C)OC2=O)cc1O` (stereo not drawn): the Potency is active: 25.1 µM.

Regarding `Cc1cc(C)c2c(=O)n(CC(=O)NC3CCCC3)sc2n1`, the Potency was active: 12.6 µM.

Regarding `COC(=O)[C@@H]1CC[C@H](C)[C@@H](c2ccc(C)cc2)N1C(=O)c1ccc(/C=N\OC[C@@H](O)COCc2ccco2)cc1`, the activity, negative = inhibition was inactive: -12.9% [at 11.5 µM].

In the case of `CC(C)=CCC/C(C)=C/CC/C(C)=C/CO`, the Potency entry was “inactive”.

For the compound `CCCSc1nc(O)c(C(c2ccc(OC)c(O)c2)c2c(O)nc(SCCC)n(C)c2=O)c(=O)n1C`, the Potency is active: 3.98 µM.

For `CCOC(=O)c1c(-c2ccccc2)csc1NC(=O)c1cc(-c2cccc(OC)c2)on1`, the Potency is active: 31.6 µM.

For the compound `C=CC[n+]1c(-c2ccc(OCC)cc2)csc1NNC(=O)Nc1ccccc1`, the Potency is active: 12.6 µM.

Take `Cc1ccc(N=C2NC(=O)/C(=C/C=C/c3ccco3)S2)cc1`: the Potency is active: 6.31 µM.

With `CC(=O)OC1C[C@]2(C)[C@@H](CC(O)C3[C@]4(C)CCC(O)C(C)[C@@H]4CC[C@]32C)/C1=C(/CCC=C(C)C)C(=O)O` (stereo partly drawn), the “activity, negative = inhibition” value is inactive: -4.64%.

On to `C=C1CC[C@H](O)C/C1=C/C=C1\CCC[C@]2(C)C([C@H](C)CCCC(C)(C)O)CC[C@@H]12` (stereo partly drawn), for which the “activity, negative = inhibition” value is inactive: -14.5%.

With `COC(=O)[C@@H]1CC[C@H](C)[C@@H](c2ccc(C)cc2)N1C(=O)c1ccc(/C=N\O[C@@H](C)c2cn([C@H]3COC[C@H]3O)nn2)cc1`, the activity, negative = inhibition was inactive: -1.54% [at 11.5 µM].

For `Cc1cccc(OCC(=O)NC(Cc2c[nH]c3ccccc23)C(=O)O)c1C` (stereo not drawn), the “activity, negative = inhibition” value was inactive: -13.9%.

Consider `COc1ccc(-n2cnc3cc(C(=O)NC4CCCC4)ccc32)cc1`, for which the “activity, negative = inhibition” value was inactive: -9.05%.

Regarding `C#C[C@]1(O)CC[C@H]2[C@@H]3CCc4cc(O)ccc4[C@H]3CC[C@@]21C`, the “activity, negative = inhibition” value was inactive: -17.4%.

Consider `C=CCCCCCCCCCCCC(O)CC(O)COC(C)=O` (stereo not drawn) (tested in a mixture with another compound), for which the “activity, negative = inhibition” value was inactive: -19.1%.

Consider `O=C(Nc1ccc(Cl)cn1)c1ccc(-c2cc(Cl)ccc2Cl)o1`, for which the Potency is active: 7.94 µM.

For `O=[N+]([O-])c1ccc(/C=N\N2CCN(c3ccc(Cl)cc3)CC2)cc1`, the Potency was active: 2.24 µM.

Consider `CCOC(=O)c1cccnc1SCC(=O)N(CC)c1cccc(C)c1`, for which the “activity, negative = inhibition” value was inactive: 3.1%.

Regarding `CC1OC(n2cc(F)c(=O)[nH]c2=O)C(O)C1O` (stereo not drawn), the “activity, negative = inhibition” value is inactive: 1.75%.

For `CN=c1scc(-c2ccc(F)cc2)n1/N=C/c1ccc(O)c(O)c1`, the Potency is active: 10 µM.

As to `Cc1ccccc1NC(=O)NCCc1c[nH]c2ccccc12`, the “activity, negative = inhibition” value was inactive: -9.56%.

With `CCOc1ccc(N=C(/C(C(=O)C(=O)N2CCOCC2)=C(/O)c2ccccc2)c2ccccc2)cc1`, the “activity, negative = inhibition” value is inactive: -14.9%.

On to `COc1cc(/C=N/N2C(=O)CSC2=S)ccc1O`, for which the Potency was active: 14.1 µM.

As for `CC(=C/c1ccc(C(C)C)cc1)/C=N/NC(=O)c1ccncc1`, the “activity, negative = inhibition” value was inactive: -8.5%.

As to `CCOc1cccc(C(=O)Nc2ccc3oc(-c4cccnc4)nc3c2)c1`, the “activity, negative = inhibition” value was inactive: -18.9%.

In the case of `CC1=NN(c2nc(-c3ccc(C)cc3)cs2)C(=O)C1N=Nc1cccc(O)c1` (stereo not drawn), the Potency was active: 1.78 µM.

Consider `COC(=O)CCCC1=CC2=CC(=O)C(C)(OC(=O)c3cccs3)C(=O)C2=CN1Cc1ccccc1` (stereo not drawn), for which the activity, negative = inhibition was inactive: 1.47% [at 11.5 µM].

On to `CCCCC1=CC2=C(c3ccco3)C(=O)C(C)(OC(=O)c3ccc(OC)cc3)C(=O)C2=CN1CCN1CCOCC1` (stereo not drawn), for which the activity, negative = inhibition was inactive: -14.4% [at 11.5 µM].

As for `O=c1c(-c2ccc(O)cc2)coc2cc(O)ccc12`, the Potency entry is “inactive”.

For the compound `CCO[C@H]1OC(C(=O)N2CCN(Cc3ccc4c(c3)OCO4)CC2)=C[C@@H](C2CCCCC2)[C@@H]1CCCO`, the “activity, negative = inhibition” value was inactive: -8.22%.

With `COC(=O)/C=C1/N/C(=N\c2nc(C)cc(C)n2)N(c2ccccc2)C1=O`, the “activity, negative = inhibition” value is inactive: 4.34%.

`COC(=O)c1ccc(CN2[C@H](C(=O)OC)C[C@@]3(O)[C@H](O)[C@H](O)[C@H](O)C[C@@H]23)cc1`: the “activity, negative = inhibition” value is inactive: -5.43%.

With `O=C(c1ccc(Br)o1)N(Cc1ccccc1)Cc1ccccc1`, the “activity, negative = inhibition” value was inactive: -20.1% [at 81.4 µM].

Turning to `COc1ccccc1NC(=O)Nc1nc(-c2cccnc2)nc2ccccc12`, the “activity, negative = inhibition” value is inactive: -7.74%.

Consider `CC(=O)n1cc([C@H]2C=C(C(=O)Nc3ccccc3)O[C@@H](OCc3ccc(CO)cc3)C2)c2ccccc21`, for which the “activity, negative = inhibition” value is inactive: -1.03%.

On to `COc1cc(/C=C2/SC(=Nc3ccc(O)cc3)NC2=O)ccc1O`, for which the Potency was active: 4.47 µM.

For `CO[C@H]1COC(=O)[C@H](C)NC(=O)C/C=C\[C@@H](C)[C@H](OC)COC(=O)C/C=C\[C@@H]1C`, the activity, negative = inhibition is inactive: -5.55% [at 11.5 µM].

Turning to `O=C1C[C@@H](O)[C@@H](O)[C@H]2[C@@H]3C(=O)N(C4CCCCC4)C(=O)[C@@H]3CC[C@H]12`, the activity, negative = inhibition was inactive: -0.0941% [at 11.5 µM] and inactive: -9.03% [at 11.5 µM].

With `COc1ccc(NC(=O)c2ccc(Br)o2)cc1`, the “activity, negative = inhibition” value was inactive: -4.08%.

For `C[C@@H](C(=O)NCc1ccc(S(C)(=O)=O)cc1)[C@@H]1C[C@@]1(C)[C@@H](NC(=O)OCc1ccccc1)c1ccccc1`, the Potency result is “inactive”.

For `O=c1[nH]c2cc(C(F)(F)F)ccc2n1-c1cc(C(F)(F)F)ccc1O`, the Potency result is “inactive”.

On to `COc1ccc2c(c1)O[C@H](c1ccc3c(c1)OCO3)[C@@H](OC(=O)N[C@H](C)C1CCCCC1)C2=O`, for which the Potency result is “inactive”.

Take `C/C(=C\c1ccccc1)C1NC(=O)c2c(sc3c2CCCC3)N1` (stereo not drawn): the Potency was active: 3.55 µM.

Consider `Cc1nn(-c2ccccc2)c2[nH]c(=O)c(CNc3ccc(N4CCOCC4)cc3)cc12`, for which the Potency was active: 17.8 µM.

Take `C1CCc2nnnn2CC1`: the Potency result is “inactive”.

Turning to `C[C@@H](CCc1ccc(O)cc1)NCCc1ccc(O)c(O)c1`, the “activity, negative = inhibition” value is inactive: -20.5%.

Regarding `Cc1nnc(N/N=C/c2cc([N+](=O)[O-])c(N3CCC(C)CC3)cc2N2CCC(C)CC2)n1N`, the Potency was active: 17.8 µM.

Consider `CCCc1cc(=O)[nH]c(SCC(=O)N2CCN(c3ccccc3)CC2)n1`, for which the “activity, negative = inhibition” value was inactive: -4.14%.

For `COc1ccc(-c2ccc3c(N)c(C(=O)c4ccc(OC)c(OC)c4)sc3n2)cc1`, the “activity, negative = inhibition” value was inactive: -17.4%.

Regarding `CC(=O)OCC(=O)C1CCC2C3CCC4=CC(=O)CC[C@@]4(C)C3CC[C@]12C` (stereo partly drawn), the “activity, negative = inhibition” value was inactive: -13.9%.
